# According to publication PMC4336329 (PLoS ONE, 2015):
# Among all 310,000 compounds or so, about 14,000 (4.5%) showed an effect of 50% or more. Effects have a minus sign here. The list shows a part of the results.
# Molecular target: human ether-à-go-go-related gene (hERG) potassium channel (human, UniProt Q12809)
# Experiment: primary screen, population patch clamp on CHO cells stably expressing hERG
# 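Note: peak tail current of the secondary pulse compared with the same well before compound.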
# Chain of human ether-à-go-go-related gene (hERG) potassium channel (Q12809 whole entry, looked up): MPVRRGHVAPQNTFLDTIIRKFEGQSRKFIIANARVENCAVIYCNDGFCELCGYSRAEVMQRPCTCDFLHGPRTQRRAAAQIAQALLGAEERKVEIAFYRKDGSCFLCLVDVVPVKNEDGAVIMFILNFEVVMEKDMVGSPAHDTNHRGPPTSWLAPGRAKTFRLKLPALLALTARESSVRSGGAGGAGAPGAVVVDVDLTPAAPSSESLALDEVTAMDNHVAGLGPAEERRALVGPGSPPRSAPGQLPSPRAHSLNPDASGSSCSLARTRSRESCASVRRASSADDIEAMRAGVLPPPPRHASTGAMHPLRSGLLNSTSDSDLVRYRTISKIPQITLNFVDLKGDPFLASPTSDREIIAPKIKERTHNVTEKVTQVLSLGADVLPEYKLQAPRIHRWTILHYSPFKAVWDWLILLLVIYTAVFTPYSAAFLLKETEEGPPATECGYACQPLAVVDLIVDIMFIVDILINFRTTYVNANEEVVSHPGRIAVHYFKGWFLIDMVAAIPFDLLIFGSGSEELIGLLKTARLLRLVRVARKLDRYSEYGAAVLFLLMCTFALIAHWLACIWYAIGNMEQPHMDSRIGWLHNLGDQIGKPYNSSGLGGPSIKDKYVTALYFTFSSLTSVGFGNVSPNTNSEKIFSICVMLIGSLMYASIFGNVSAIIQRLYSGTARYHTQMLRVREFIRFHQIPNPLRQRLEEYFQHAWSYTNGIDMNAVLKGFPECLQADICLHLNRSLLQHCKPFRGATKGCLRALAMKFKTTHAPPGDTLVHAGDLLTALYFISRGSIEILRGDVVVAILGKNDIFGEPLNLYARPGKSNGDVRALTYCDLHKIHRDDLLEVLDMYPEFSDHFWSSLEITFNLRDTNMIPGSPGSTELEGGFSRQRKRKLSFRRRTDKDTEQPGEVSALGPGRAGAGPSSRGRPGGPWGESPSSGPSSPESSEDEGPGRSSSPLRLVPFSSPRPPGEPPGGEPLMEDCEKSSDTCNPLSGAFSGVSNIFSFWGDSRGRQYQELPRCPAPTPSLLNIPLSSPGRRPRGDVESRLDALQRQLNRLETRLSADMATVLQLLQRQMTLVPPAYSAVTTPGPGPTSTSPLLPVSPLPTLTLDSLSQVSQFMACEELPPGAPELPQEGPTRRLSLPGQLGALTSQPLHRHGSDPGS
row,Compound,"hERG current change (%, negative = inhibition) at 10uM [%]"
1,CCOC(CNC(=O)C(=O)NCC(c1ccco1)N1CCN(c2ccc(OC)cc2)CC1)OCC (stereo not drawn),0.386
2,COc1ccc(NC(=O)N2Cc3ccccc3CC2C(=O)NC(C)(C)C)cc1 (stereo not drawn),1.23
3,COc1ccccc1NC(=O)CSc1nnc(CC(=O)Nc2ccccc2C)n1C,18.7
4,COc1ccc(C(N)=O)cc1NC(=O)CC(O)(C(F)(F)F)C(F)(F)F,7.68
5,COc1ccc(NC(=O)C2CCCN2S(=O)(=O)c2cccc3cccnc23)c(OC)c1 (stereo not drawn),-6.73
6,CCN(CC)C(=O)Oc1cc(COC)nc(-c2ccccc2)n1,-1.63
7,CC(CCc1ccccc1)NC(=O)C1CCCN(C(=O)c2cc3sccc3n2C)C1 (stereo not drawn),-27.4
8,COC(=O)c1ccc(NC(=O)CSc2nnc(-c3ccncc3)n2N)cc1,2.05
9,CCn1ncc([N+](=O)[O-])c1C(=O)N1CCCC1,20.9
10,O=c1c(Cl)c(NCCCO)cnn1-c1nc2ccccc2[nH]1,-6.07
11,COC(=O)c1ccc(N(C(=O)CNC(=O)c2ccco2)C(C(=O)NCC2CCCO2)c2ccc(OC)c(OC)c2)cc1 (stereo not drawn),12.6
12,O=C(NCc1ccccn1)c1cc(-c2ccccc2Cl)nc2ccccc12,-2.16
13,Cc1cc(C(=O)Nc2ccc3ccccc3c2)c(C)o1,6.68
14,CCOC(=O)c1cn(CC)c2cc(N3CCN(C)CC3)c(F)cc2c1=O,18.9
15,CCOC(=O)N1CCN(C(=O)c2cc(OC)cc(OC)c2)CC1,-1.58
16,CCOC(=O)c1ccc2c(c1)C(=O)N(C1CCCCC1)C2=O,2.81
17,COCCn1c(C)cc(C(=O)COC(=O)/C=C/c2c(C)nn(C3CCS(=O)(=O)C3)c2Cl)c1C (stereo not drawn),-12.3
18,COc1cccc2cc(C(C)N(CCCN3CCOCC3)C(=O)Nc3ccccc3)oc12 (stereo not drawn),-16.9
19,CCC(CC)C(=O)c1c[nH]c(C(=O)NCc2ccccc2OC)c1,14.9
20,CC(C)c1ccc(NC(=O)C(c2ccccc2)N2CC(=O)Nc3ccccc32)cc1 (stereo not drawn),11.4
21,CCOC(=O)N1CCN(c2c(NCC3CCN(Cc4cccc(C)c4)CC3)c(=O)c2=O)CC1,2.2
22,Cc1cc(C(=O)Nc2ccc(Cl)cc2)c(C)n1-c1ccccc1,-0.535

row,Compound,"hERG current change (%, negative = inhibition) at 10uM [%]"
1,COc1cc2ccccc2cc1C(=O)N(CCN(C)C)c1nc2c(OC)ccc(OC)c2s1.Cl,-15.6
2,Cc1cc(OC(C)C(=O)NCc2ccncc2)c2c3c(c(=O)oc2c1)CCC3 (stereo not drawn),-2.14
3,O=C(c1sccc1-c1ccccc1)N1CCN(S(=O)(=O)c2ccccc2F)CC1,-49.3
4,Nc1cc(=O)[nH]c(=O)n1-c1ccc(Cl)cc1,15.2
5,O=S(=O)(Nc1ccncc1Cl)c1cccc(Cl)c1Cl,19.4
6,Cc1cc(NC(=O)c2ccc(F)cc2)no1,22.1
7,CSCCC(NC(=O)c1ccco1)C(=O)OCC(=O)Nc1ncc(Cl)c(C)c1Cl (stereo not drawn),-24.6
8,COc1ccccc1-n1cnnc1SCC(=O)Nc1nc(C)c(Cl)cc1Cl,-8.05
9,CC(C)(C)c1ccccc1OCCN1CCCC1,-24.1
10,N#CCCN(C(=O)COC(=O)C12CC3CC(CC(O)(C3)C1)C2)c1ccc(F)cc1,9.8
11,COc1cc(CNCCN2CCOCC2)ccc1OCc1c(Cl)cccc1Cl.Cl,-50.6
12,COc1cc(C=O)ccc1OCc1c(C)noc1C,10.9
13,O=C(Nc1ccc(S(=O)(=O)Nc2cnc3ccccc3n2)cc1)c1ccc(Cl)c([N+](=O)[O-])c1,12.9
14,CC1CCCC(CC(=O)O)(CC(=O)O)C1 (stereo not drawn),17.2
15,Cc1ccc(NS(=O)(=O)c2c(C)nc3sccn3c2=O)cc1C,-10.9
16,COc1cc(C(=O)NCCC(=O)NCc2ccc3c(c2)OCO3)cc(OC)c1OC,16.4
17,CCOc1ccc(S(=O)(=O)N(CC)CC(=O)NCc2ccccn2)cc1C,2.76
18,Cc1cc([N+](=O)[O-])ccc1NC(=O)CCC(=O)N1CCCCCC1,-23.6
19,COc1ccc(OC)c(NS(=O)(=O)c2ccc(N3CCCC3=O)cc2)c1,-4.92
20,CCc1ccc(O)c(N=Cc2ccccc2O)c1,2
21,COc1ccc(-n2nc(C(=O)NCC(=O)N3CCCC3)c3ccccc3c2=O)cc1Cl,17.7
22,CCN(CC)S(=O)(=O)c1ccc(OC)c(NC(=O)/C=C/c2ccco2)c1,-37.5

row,Compound,"hERG current change (%, negative = inhibition) at 10uM [%]"
1,O=C(Nc1cccc(C(F)(F)F)c1)C12CC3CC(CC(C3)C1)C2,16.3
2,CCc1ccc(NCc2nc3ccccc3c(=O)[nH]2)cc1,-3.29
3,CCc1c(C)sc(NC(=S)N2CC(C)OC(C)C2)c1C(=O)OC (stereo not drawn),27.3
4,CCCN(CCC)Cc1c(C(=O)N/N=C/CCc2ccccc2)nnn1-c1nonc1N,-19.1
5,O=C(CSc1c[nH]c2ccccc12)N1CCCc2ccccc21,0.956
6,O=C(Cn1nc(-c2ccccc2)c2ccccc2c1=O)Nc1ccccn1,0.199
7,CCC(=O)Nc1cccc(NC(=O)c2ccc(C)c([N+](=O)[O-])c2)c1,-20.9
8,COCCCNc1c2c3c(cccc3[nH]c1=O)C(=O)c1ccccc1-2,-24
9,Cc1c(Br)c([N+](=O)[O-])nn1CC(=O)Nc1ccc(CC#N)cc1,33.8
10,CSc1ccc(CCNC(=O)C2CCN(c3nnc(-n4cccc4)s3)CC2)cc1,1.23
11,Cc1ccccc1OCC(=O)NCC(=O)OCC(=O)c1ccc2ccccc2c1,2.34
12,CC(C)CN(C(=O)COC(=O)c1cncc(Br)c1)c1c(N)n(Cc2ccccc2)c(=O)[nH]c1=O,21.9
13,CCOc1ccc(S(=O)(=O)N2CCC(C(=O)NCc3cccnc3)CC2)cc1Cl,-40.8
14,NNc1ccc2nncn2n1,-0.364
15,CC(C)c1ccc(N(C)C(=O)Cc2c(C(=O)O)n(C)c3ccccc23)cc1,0.167
16,CC(NC(=O)CCC(=O)NCc1ccc(F)cc1)c1ccccc1 (stereo not drawn),13.3
17,CCOCCCn1c(=S)[nH]c2cc(C(=O)N3CCOCC3)ccc2c1=O,-9.07
18,CCN(CC)C(=O)CSc1nnc(-c2ccco2)n1Cc1ccco1,-22.3
19,O=C(c1ccc(F)cc1)c1ccc(N2CCCCC2)cc1,-31.5
20,CCCn1nnc(NC(=O)c2ccc(Cl)cc2Cl)n1,2.23
21,COC(=O)C1=C(C(=O)OC)C2C(C)=CC(C)=CN2C(C(=O)OC)=C1C(=O)OC (stereo not drawn),-6.2
22,O=C(c1cccc(Cl)c1)C1CCCN(C(=O)c2ccc3c(c2)OCO3)C1 (stereo not drawn),-34.1

row,Compound,"hERG current change (%, negative = inhibition) at 10uM [%]"
1,CC1CCCC(NS(=O)(=O)c2cccc3nsnc23)C1C (stereo not drawn),9.42
2,COc1cc(CNC(=O)CCCC/C=C\C(C)C)ccc1O,0.646
3,Cc1cc(Cl)ccc1OCC(=O)NNC(=O)c1ccco1,8.38
4,Nc1ncnc2c1ncn2[C@@H]1O[C@H](CO)C[C@@H]1O.O,-3.06
5,Cc1ccc(-c2nnc(Nc3ccc(C(=O)N(C)C)cc3)c3ccccc23)cc1S(N)(=O)=O,11.6
6,CNC(=O)c1cccn(Cc2ccc(C(F)(F)F)cc2)c1=O,35.5
7,O=C(NCc1cccs1)C1CCCN1C(=O)Nc1ccccc1 (stereo not drawn),21
8,CCOC(=O)c1oc2c(O)c(O)ccc2c(=O)c1-c1nncn1-c1ccccc1,13.3
9,CN(CC1CCOCC1)C(=O)CC1C(=O)NCCN1C/C=C/c1ccccc1 (stereo not drawn),9.57
10,O=C(NCC1(N2CCOCC2)CCCCC1)c1cccc(S(=O)(=O)Nc2ccc(F)cc2)c1,-44.1
11,CC(C)OC(=O)CC(=O)CSc1nc2c(cc1C#N)CCCCC2,5.58
12,Cc1cc(C)cc(NC(=O)CCc2nc3sc4c(c3c(=O)[nH]2)CCCC4)c1,-12.4
13,NC1=NC(=O)/C(=C/C=C/c2cccs2)S1,6.07
14,CC(=O)Nc1cccc(C(=O)N/N=C/c2ccc(C)o2)c1,18.1
15,CC(C)CN1CC(=O)N2C(c3ccccc3)c3[nH]c4ccccc4c3C[C@H]2C1=O (stereo partly drawn),-21.2
16,O=C(C1CCCN(S(=O)(=O)c2ccccc2[N+](=O)[O-])C1)N1CCN(c2ccccc2)CC1 (stereo not drawn),-38.1
17,Cc1ccc2c(c1)nnn2C1CCN(CC(=O)Nc2ccc(F)cc2)CC1,-65.4
18,CCCCCCCCCC[n+]1cccc(C(=O)N(CC)CC)c1.[Br-],-0.215
19,COC(=O)c1c(-c2cccs2)csc1NC(=O)CSc1ncnc2sc(C)c(C)c12,0.474
20,Cc1cc(/C=C(\C#N)C(=O)NC2CCCCCC2)c(C)n1C,2.29
21,Cc1ccc(NC(=O)CCC(=O)OCC(=O)c2ccc(Oc3ccc([N+](=O)[O-])cc3)cc2)cc1C,-1.43
